# Laboratory results as given in the supplement of paper PMC8728848.
# Some of the results follow.
# B1: SP8524D-bot-399-27-399 (Bacteroides ovatus) (protein)
# chain: DAKYDTLDTHAYIEEALSSTSQKVTVQATGESFTTLNVHLSNLSSTDNHYKLVTDQSVLDTYNHINGTGYIMLPKDYYTLPETITVKAGQYAADALSIALKAFSQEMMKSGESYALPVKLVLQDGSISPMENTGTFVILAESIIEFSAPMFVGAPSLKANKFTESPETYSQYTIEVRFQVANTADRDRAVFKNGGDDANFILLRFEDPQSDNENYKAHSLVQIVGRNRLYLNPSNSFKPNEWQHLALVCDGSNYRLYINGVDSGVLSIPTGATTFSDVNWFCLGDDSYSRWGNCKILMSEARIWSVVRSASQIQNNMTQVSPKSVGLEAYWRFNEGQGNVFEDATGKGHTLTTSATPTWIDGILSTDKSTEWK
# Tests used:
# Test in all cases: glycan array binding signal (z-score within array); higher = stronger binding
# Conditions in all cases: glycan notation: IUPAC condensed, linker removed
# [1] = target: GlcNAc(b1-3)Gal(b1-4)GlcNAc(b1-3)Gal(b1-4)GlcNAc(b1-2)Man(a1-3)[GlcNAc(b1-3)Gal(b1-4)GlcNAc(b1-3)Gal(b1-4)GlcNAc(b1-2)Man(a1-6)]Man(b1-4)GlcNAc(b1-4)[Fuc(a1-6)]GlcNAc
# Outline: (§1)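 Glycan array data came from 3228 arrays in the Consortium for Functional Glycomics database, and only arrays with an available protein sequence were kept. Glycan names were put into IUPAC-condensed notation, and columns mapping to the same glycan were averaged. The binding signal is a within-array Z-score, averaged across arrays of one protein sequence run at different concentrations or buffers and across linkers. A negative Z-score can be read as non-binding.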
# [2] = target: GlcNAc(b1-3)Gal(b1-4)GlcNAc(b1-3)Gal(b1-4)GlcNAc(b1-2)[GlcNAc(b1-3)Gal(b1-4)GlcNAc(b1-3)Gal(b1-4)GlcNAc(b1-6)]Man(a1-6)[GlcNAc(b1-3)Gal(b1-4)GlcNAc(b1-3)Gal(b1-4)GlcNAc(b1-2)Man(a1-3)]Man(b1-4)GlcNAc(b1-4)[Fuc(a1-6)]GlcNAc
# Outline: as §1
# [3] = target: GlcNAc(b1-3)Gal(b1-4)GlcNAc(b1-3)Gal(b1-4)GlcNAc(b1-3)Gal(b1-4)GlcNAc(b1-2)Man(a1-3)[GlcNAc(b1-3)Gal(b1-4)GlcNAc(b1-3)Gal(b1-4)GlcNAc(b1-3)Gal(b1-4)GlcNAc(b1-2)Man(a1-6)]Man(b1-4)GlcNAc(b1-4)GlcNAc
# Outline: as §1
# [4] = target: GlcNAc(b1-3)Gal(b1-4)GlcNAc(b1-3)Gal(b1-4)GlcNAc(b1-3)Gal(b1-4)GlcNAc(b1-2)Man(a1-3)[GlcNAc(b1-3)Gal(b1-4)GlcNAc(b1-3)Gal(b1-4)GlcNAc(b1-3)Gal(b1-4)GlcNAc(b1-2)Man(a1-6)]Man(b1-4)GlcNAc(b1-4)[Fuc(a1-6)]GlcNAc
# Outline: as §1
# [5] = target: GlcNAc(b1-3)Gal(b1-4)GlcNAc(b1-3)Gal(b1-4)GlcNAc(b1-3)Gal(b1-4)GlcNAc(b1-2)[GlcNAc(b1-3)Gal(b1-4)GlcNAc(b1-3)Gal(b1-4)GlcNAc(b1-3)Gal(b1-4)GlcNAc(b1-6)]Man(a1-6)[GlcNAc(b1-3)Gal(b1-4)GlcNAc(b1-3)Gal(b1-4)GlcNAc(b1-3)Gal(b1-4)GlcNAc(b1-2)Man(a1-3)]Man(b1-4)GlcNAc(b1-4)[Fuc(a1-6)]GlcNAc
# Outline: as §1
# [6] = target: GlcNAc(b1-3)Gal(b1-4)GlcNAc(b1-3)Gal(b1-4)GlcNAc(b1-3)Gal(b1-4)GlcNAc(b1-3)Gal(b1-4)GlcNAc(b1-2)Man(a1-3)[GlcNAc(b1-3)Gal(b1-4)GlcNAc(b1-3)Gal(b1-4)GlcNAc(b1-3)Gal(b1-4)GlcNAc(b1-3)Gal(b1-4)GlcNAc(b1-2)Man(a1-6)]Man(b1-4)GlcNAc(b1-4)GlcNAc
# Outline: as §1
# [7] = target: GlcNAc(b1-3)Gal(b1-4)GlcNAc(b1-3)Gal(b1-4)GlcNAc(b1-3)Gal(b1-4)GlcNAc(b1-3)Gal(b1-4)GlcNAc(b1-2)Man(a1-3)[GlcNAc(b1-3)Gal(b1-4)GlcNAc(b1-3)Gal(b1-4)GlcNAc(b1-3)Gal(b1-4)GlcNAc(b1-3)Gal(b1-4)GlcNAc(b1-2)Man(a1-6)]Man(b1-4)GlcNAc(b1-4)[Fuc(a1-6)]GlcNAc
# Outline: as §1
# [8] = target: GlcNAc(b1-3)Gal(b1-4)GlcNAc(b1-3)Gal(b1-4)GlcNAc(b1-3)Gal(b1-4)GlcNAc(b1-3)Gal(b1-4)GlcNAc(b1-2)[GlcNAc(b1-3)Gal(b1-4)GlcNAc(b1-3)Gal(b1-4)GlcNAc(b1-3)Gal(b1-4)GlcNAc(b1-3)Gal(b1-4)GlcNAc(b1-6)]Man(a1-6)[GlcNAc(b1-3)Gal(b1-4)GlcNAc(b1-3)Gal(b1-4)GlcNAc(b1-3)Gal(b1-4)GlcNAc(b1-3)Gal(b1-4)GlcNAc(b1-2)Man(a1-3)]Man(b1-4)GlcNAc(b1-4)[Fuc(a1-6)]GlcNAc
# Outline: as §1
# [9] = target: GlcNAc(b1-3)Gal(b1-4)GlcNAc(b1-3)Gal(b1-4)GlcNAc(b1-3)GalNAc
# Outline: as §1
# [10] = target: GlcNAc(b1-3)Gal(b1-4)GlcNAc(b1-3)GalNAc
# Outline: as §1
# [11] = target: GlcNAc(b1-3)Gal(b1-4)GlcNAc(b1-3)[GlcNAc(b1-3)Gal(b1-4)GlcNAc(b1-3)]GalNAc
# Outline: as §1
# [12] = target: GlcNAc(b1-3)Gal(b1-4)GlcNAc(b1-6)[Gal(b1-3)]GalNAc
# Outline: as §1
# [13] = target: GlcNAc(b1-3)Gal(b1-4)GlcNAc(b1-6)[GlcNAc(b1-3)Gal(b1-3)]GalNAc
# Outline: as §1
# [14] = target: GlcNAc(b1-3)Gal(b1-4)GlcNAc(b1-6)[GlcNAc(b1-3)]Gal(b1-4)GlcNAc
# Outline: as §1
# GlcNAc(b1-3)GalNAc = target: GlcNAc(b1-3)GalNAc
# Outline: as §1
# GlcNAc(b1-3)Man = target: GlcNAc(b1-3)Man
# Outline: as §1
# [15] = target: GlcNAc(b1-3)[GlcNAc(b1-4)][GlcNAc(b1-6)]GlcNAc
# Outline: as §1
# [16] = target: GlcNAc(b1-3)[GlcNAc(b1-6)]Gal(b1-4)GlcNAc
# Outline: as §1
# [17] = target: GlcNAc(b1-3)[GlcNAc(b1-6)]GalNAc
# Outline: as §1
# [18] = target: GlcNAc(b1-4)Gal(b1-4)GlcNAc
# Outline: as §1
# GlcNAc(b1-4)GlcNAc = target: GlcNAc(b1-4)GlcNAc
# Outline: as §1
# [19] = target: GlcNAc(b1-4)GlcNAc(b1-4)GlcNAc
# Outline: as §1
# [20] = target: GlcNAc(b1-4)GlcNAc(b1-4)GlcNAc(b1-4)GlcNAc(b1-4)GlcNAc
# Outline: as §1
# [21] = target: GlcNAc(b1-4)GlcNAc(b1-4)GlcNAc(b1-4)GlcNAc(b1-4)GlcNAc(b1-4)GlcNAc
# Outline: as §1
# [22] = target: GlcNAc(b1-4)[GlcNAc(b1-6)]GalNAc
# Outline: as §1
# [23] = target: GlcNAc(b1-6)Gal(b1-4)GlcNAc
# Outline: as §1
# GlcNAc(b1-6)GalNAc = target: GlcNAc(b1-6)GalNAc
# Outline: as §1
# [24] = target: GlcNAc6S(b1-3)Gal(b1-4)GlcNAc
# Outline: as §1
# Kdn(a2-3)Gal(b1-3)GalNAc = target: Kdn(a2-3)Gal(b1-3)GalNAc
# Outline: as §1
# Kdn(a2-3)Gal(b1-3)GlcNAc = target: Kdn(a2-3)Gal(b1-3)GlcNAc
# Outline: as §1
# Kdn(a2-3)Gal(b1-4)Glc = target: Kdn(a2-3)Gal(b1-4)Glc
# Outline: as §1
# Kdn(a2-3)Gal(b1-4)GlcNAc = target: Kdn(a2-3)Gal(b1-4)GlcNAc
# Outline: as §1
# [25] = target: Kdn(a2-3)Gal(b1-4)[Fuc(a1-3)]GlcNAc
# Outline: as §1
# Kdn(a2-6)Gal(b1-4)GlcNAc = target: Kdn(a2-6)Gal(b1-4)GlcNAc
# Outline: as §1
# [26] = target: Man(a1-2)Man(a1-2)Man(a1-3)Man
# Outline: as §1
# [27] = target: Man(a1-2)Man(a1-2)Man(a1-6)[Man(a1-3)]Man
# Outline: as §1
# Man(a1-2)Man(a1-3)Man = target: Man(a1-2)Man(a1-3)Man
# Outline: as §1
# [28] = target: Man(a1-2)Man(a1-3)[Man(a1-2)Man(a1-6)]Man
# Outline: as §1
binder,measurement,setting,value
B1,glycan array binding signal (z-score),[1],0.563
same,glycan array binding signal (z-score),[2],1.11
same,glycan array binding signal (z-score),[3],-0.027
same,glycan array binding signal (z-score),[4],0.341
same,glycan array binding signal (z-score),[5],0.446
same,glycan array binding signal (z-score),[6],0.241
same,glycan array binding signal (z-score),[7],0.473
same,glycan array binding signal (z-score),[8],0.013
same,glycan array binding signal (z-score),[9],0.147
same,glycan array binding signal (z-score),[10],-0.271
same,glycan array binding signal (z-score),[11],-0.049
same,glycan array binding signal (z-score),[12],-0.128
same,glycan array binding signal (z-score),[13],-0.404
same,glycan array binding signal (z-score),[14],-0.127
same,glycan array binding signal (z-score),GlcNAc(b1-3)GalNAc,-0.115
same,glycan array binding signal (z-score),GlcNAc(b1-3)Man,-0.269
same,glycan array binding signal (z-score),[15],0.26
same,glycan array binding signal (z-score),[16],-0.369
same,glycan array binding signal (z-score),[17],0.154
same,glycan array binding signal (z-score),[18],-0.294
same,glycan array binding signal (z-score),GlcNAc(b1-4)GlcNAc,-0.423
same,glycan array binding signal (z-score),[19],-0.187
same,glycan array binding signal (z-score),[20],-0.202
same,glycan array binding signal (z-score),[21],0.093
same,glycan array binding signal (z-score),[22],0.225
same,glycan array binding signal (z-score),[23],0.153
same,glycan array binding signal (z-score),GlcNAc(b1-6)GalNAc,-0.136
same,glycan array binding signal (z-score),[24],0.154
same,glycan array binding signal (z-score),Kdn(a2-3)Gal(b1-3)GalNAc,-0.019
same,glycan array binding signal (z-score),Kdn(a2-3)Gal(b1-3)GlcNAc,-0.198
same,glycan array binding signal (z-score),Kdn(a2-3)Gal(b1-4)Glc,-0.253
same,glycan array binding signal (z-score),Kdn(a2-3)Gal(b1-4)GlcNAc,0.347
same,glycan array binding signal (z-score),[25],0.119
same,glycan array binding signal (z-score),Kdn(a2-6)Gal(b1-4)GlcNAc,0.257
same,glycan array binding signal (z-score),[26],-0.375
same,glycan array binding signal (z-score),[27],-0.327
same,glycan array binding signal (z-score),Man(a1-2)Man(a1-3)Man,-0.1
same,glycan array binding signal (z-score),[28],-0.388
